According to paper PMC12136788:
Some of the results follow.

T1: UNK ZnF1-3 (human, UniProt Q9C0B0 31-174)
T1 sequence: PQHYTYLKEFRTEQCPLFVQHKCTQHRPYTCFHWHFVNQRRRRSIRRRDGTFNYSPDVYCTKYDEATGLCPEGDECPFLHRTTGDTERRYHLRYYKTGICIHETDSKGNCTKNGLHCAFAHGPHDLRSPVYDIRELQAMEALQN

B1: chr6:38652254:38652255:-_ENSG00000124767_ENST00000373365|hu_hu|hu_hu_hu_mus_False|1_68 (ssRNA)
RNA: GGGAGUUCUACAGUCCGACGAUCCGAGAACUUCAUAGCAGGGAAGUCAAGCUUCUGCAGGAGGGUCAUUCCAAGAACCCUCGUAUAAAAAUCCAGGGACUUCUUAGGAUCCUUAAUUCUUAGCAUCGUUUGCUGCAAUAGAAACAACAGAGGAUUGAGCAUCA
B2: chr10:70097624:70097625:+_ENSG00000096746_ENST00000354695|hu_hu|FALSE|FALSE (ssRNA)
RNA: GGGAGUUCUACAGUCCGACGAUCGUCCAUCGUCAAUGUUAUCCCAUUUGGCACGAUUUCCAACCCUUGAAAGAACUGAACUAUUUCCUCUUUGCUGCAACCAAAUGGUAGUCCACGAAGUCGUACUGUCCCAUCACUAGCGUCCAACAGAGGAUUGAGCAUCA
B3: chr2:48026839:48026840:+_ENSG00000116062_ENST00000540021|hu_hu|hu_hu_hu_mus_False|8_78 (ssRNA)
RNA: GGGAGUUCUACAGUCCGACGAUCAUAGUGAGCCACUAGCGUCCUAAAUCUGGAACAAUGGCGAUCAUCCGAAAACUGGCCGAUGAAAAACUUGCCCAGUGAAGUGUCCACAAAGCAAACACCAUACGCACGAGUAUGACCAGACAACAGAGGAUUGAGCAUCA
B4: chr17:64801638:64801639:+_ENSG00000154229_ENST00000413366|hu_mus|hu_hu_hu_mus_False|68_68 (ssRNA)
RNA: GGGAGUUCUACAGUCCGACGAUCUAUAUAUAUAUAUACAUAUGUACACAUAUAUAGUAAAACCCUAAUCUAUCACGUAAAGUAGCCAUUCAUUUUUAAAAUUACAUCUACAUUAAAAAAUUAAUAUAUCUGAUAGAGUGCCAGCAACAGAGGAUUGAGCAUCA
B5: chr5:40767622:40767623:-_ENSG00000132356_ENST00000397128|hu_mus|hu_hu_hu_mus_False|48_108 (ssRNA)
RNA: GGGAGUUCUACAGUCCGACGAUCAUCUUUGAUUGUGGCCCUCUUCAUGGGAUCCACCUGCAGCAUAUGUUUCAAAAGGCUGAUUACAGAAGGAUUUAAGUACUGAGGGGUAUAAAAGAUCCCAUCACAUAUCUUCUUAAAAAGCAACAGAGGAUUGAGCAUCA
B6: chr11:54683702:54683703:+_ENSMUSG00000020267_ENSMUST00000020504|mus_hu|FALSE|FALSE (ssRNA)
RNA: GGGAGUUCUACAGUCCGACGAUCCACAUUUCUUGCCAACAAUCAUUAAGUGUCCAAGAAGACUUUCAUCAUCAUCUUCUGCCACAGAAAUCUGGGAUAUAUGUUUCUUGGGUAUCACCAGAAAAUGUGUUGGUGCUUGAGGGGCAACAGAGGAUUGAGCAUCA
B7: 54250035_54256734_482_CDS_ENSG00000145216_ENST00000306932|human|control|control (ssRNA)
RNA: GGGAGUUCUACAGUCCGACGAUCAUUAAUGCUUCCAGGUGCAUCAAGGUCUACUCCUUUGACUUUUGUCCCUGUAGUUCCAUAAACUCUUCCCCCUGUCUUGAUGUUAAGAUUUACAGGUGCUGUACCAUAACUCCCAUACUGCAACAGAGGAUUGAGCAUCA
B8: chr4:95690885:95690886:+_ENSMUSG00000028572_ENSMUST00000156910|mus_mus|mus_mus_mus_hu_False|88_98 (ssRNA)
RNA: GGGAGUUCUACAGUCCGACGAUCUUUAGAAAAUGUUAAUGUUAAAUAGCAUGCUAAUUCAAAGGCUUAUUUUAUUUUACCAGAAGUCACAGGCAAGCAGACACUACAAGAAUAUAUGAAAAUGAAACUCAACAAUAUAACUGUCAACAGAGGAUUGAGCAUCA
B9: 92727876_92727996_1082_3pUTR_ENSMUSG00000008398_ENSMUST00000008542|mouse|control|control (ssRNA)
RNA: GGGAGUUCUACAGUCCGACGAUCAGAGUCGGGGGACAGGGAUGGGGACCGAGAUGAAGAGGGUGACGCAGACGAAAUGCUGGCAGCAUUUGGCAACAUUAAAGAGGAGAUCUUGGCUGAGACAGACGAGGCCAGGAAAGCGGACAACAGAGGAUUGAGCAUCA
B10: chr10:28884852:28884853:+_ENSG00000095787_ENST00000354911|hu_mus|FALSE|FALSE (ssRNA)
RNA: GGGAGUUCUACAGUCCGACGAUCAGAUGCUCCAUUAGCAUCAAAUGAUUUCUUUGGCUGGUGAUCAGACUGAAGCGUAAAUGGACUAGAAGGAACAGUGCUUGGGGUAGCGGUUGGAUGAACCACUGGUUUGAUGGGGUGCUGCAACAGAGGAUUGAGCAUCA
B11: chr2:47387792:47387793:-_ENSG00000143933_ENST00000272298|hu_hu|hu_hu_hu_mus_True|1_1 (ssRNA)
RNA: GGGAGUUCUACAGUCCGACGAUCUAAGGACAAUGACAGUAAGAUAAGGGAAGAAAACAUGGAGGAAUGAAGUCCUAAUUACUAUACAUGCAUAUUUUUUGACAGUAGGGGGGGGGAACCUUUUACAGAUAAGUUACACAAAGACAACAGAGGAUUGAGCAUCA
B12: 160239141_160239261_4123_CDS_ENSG00000123636_ENST00000355831|human|control|control (ssRNA)
RNA: GGGAGUUCUACAGUCCGACGAUCCCCUUGGUCAUCACUGUCAUCGUCAUCAUCAUCGUCAUAAUCACUGUCUCCUCCCUUCCUUCUUCGCUUGCGUCCUGGAGUGGGUGUGCCCAAGGGAUGCUGCUCUUCUCCCAGAUCAAUCAACAGAGGAUUGAGCAUCA
B13: chr2:202488911:202488912:-_ENSG00000155755_ENST00000286196|hu_mus|hu_hu_hu_mus_False|48_88 (ssRNA)
RNA: GGGAGUUCUACAGUCCGACGAUCAUUGAAACAUUUUUCAUAAUCUCAGAGAUGUUUUCAGCAUUAUGUAACAAAAGCUCAAUUGUAAAUACACAUGUCUUAUAAAAAUACACUUAAAAACACGAGUGGGGAGCGCAGGCGCCACAACAGAGGAUUGAGCAUCA
B14: chr10:33214929:33214930:-_ENSG00000150093_ENST00000302278|hu_hu|FALSE|FALSE (ssRNA)
RNA: GGGAGUUCUACAGUCCGACGAUCAACAAGUUCAUUAAAUACUUCUCCUUUAUUAGUAAGACUGAGCACAUUUUUGUAGCUAAAUGGGCUGGUGCAGUUCUGUUCACUUGUGCAAGGGUUCCUGAGCUUAGCUGGUGUUGUGCUCAACAGAGGAUUGAGCAUCA

What follows are binders tested against T1, UNK ZnF1-3 (assay: nsRBNS (natural sequence RNA bind-n-seq); RBNS binding buffer (assumed for nsRBNS): 25 mM Tris pH 7.5, 150 mM KCl, 3 mM MgCl2, 0.01% Triton X-100, 500 ug/ml BSA, 20 U/ml SUPERase-In, 4 C; UNK is unkempt and MSI1 is Musashi-1; names of the RNAs are library labels; protein concentration not given here; high values mean tight binding).

Binder	binding signal [enrichment R]
B1	0.519
B2	0.685
B3	1.23
B4	1.8
B5	1.52
B6	0.798
B7	0.722
B8	1.58
B9	2.16
B10	1.23
B11	2.2
B12	0.678
B13	0.866
B14	1.1
